Counter-ions that a name gives are not always drawn.

For this test, the system named is cardiac arrhythmias in anesthetized rats subjected to coronary artery occlusion. The test can be described thus: Antiarrhythmic efficacy: arrhythmias after coronary artery occlusion in anesthetized rats. In kind it is in vivo, rat. The conditions noted are these: infusion rate reducing arrhythmia score to 50% of vehicle.
As for `Cl.OC1CCN(C2CCCC[C@@H]2OCCn2ccc3ccccc32)C1` (stereo partly drawn) [Compound 28, (3R)/(3S)-1-{(1R,2R)/(1S,2S)-2-[2-(1H-indol-1-yl)ethoxy]cyclohexyl}pyrrolidin-3-ol hydrochloride], the ED50AA stood at 0.6 µmol/kg/min.
In the case of `COc1ccc(CCO[C@H]2CCCCC2N2CC[C@@H](O)C2)cc1OC.Cl` (stereo partly drawn) [Compound 4, (1R,2R)/(1S,2S)-2-[(3R)-Hydroxypyrrolidinyl]-1-(3,4-dimethoxyphenethoxy)-cyclohexane monohydrochloride] it was 0.8 µmol/kg/min; in that of `COc1ccc(CCOC2CCCC[C@H]2N2CC=CC2)cc1OC.Cl` (stereo partly drawn) [Compound 16, 1-{(1R,2R)/(1S,2S)-2-[2-(3,4-dimethoxyphenyl)-ethoxy]cyclohexyl}-2,5-dihydro-1H-pyrrole hydrochloride], 2.4 µmol/kg/min.
The same measure for `Cl.OC1CCN(C2CCCC[C@@H]2OCCc2c(Cl)cccc2Cl)C1` (stereo partly drawn) [Compound 23, (3R)/(3S)-1-{(1R,2R)/(1S,2S)-2-[2-(2,6-dichlorophenyl)-ethoxy]cyclohexyl}-pyrrolidin-3-ol hydrochloride]: 0.6 µmol/kg/min; for `Cl.O[C@@H]1CCN(C2CCCC[C@@H]2OCCc2cc3ccccc3o2)C1` (stereo partly drawn) [Compound 29, (3R)-1-{(1R,2R)/(1S,2S)-2-[2-(1-benzofuran-2-yl)ethoxy]-cyclohexyl}-pyrrolidin-3-ol hydrochloride]: 1 µmol/kg/min.
The same measure for `c1ccc2cc(OCCO[C@H]3CCCCC3N3CCOCC3)ccc2c1` (stereo partly drawn) [Compound 33, (1R,2R)/(1S,2S)-[2-(4-morpholinyl)-1-[2-(2-naphthoxy)ethoxy]]-cyclohexane]: 2 µmol/kg/min; for `COc1ccc(CCO[C@H]2CCCC[C@@H]2N2CC[C@H](O)C2)cc1OC.Cl` [Compound 7, (1S,2S)-2-[(3S)-Hydroxypyrrolidinyl]-1-(3,4-dimethoxyphenethoxy)cyclohexane monohydrochloride]: 0.9 µmol/kg/min; for `COc1ccc(CCOC2CCCC[C@H]2N2CCC(F)C2)cc1OC.Cl` (stereo partly drawn) [Compound 14, (3R)/(3S)-1-{(1R,2R)/(1S,2S)-2-[2-(3,4-dimethoxyphenyl)-ethoxy]cyclohexyl}-3-fluoropyrrolidine hydrochloride]: 1.4 µmol/kg/min.
`COc1ccc(CCOC2CCCC[C@H]2N2CCN(C(=O)Cc3ccc(OC)c(OC)c3)CC2)cc1OC.Cl` (stereo partly drawn) [Compound 22, 1-[(3,4-dimethoxyphenyl)acetyl]-4-{(1R,2R)/(1S,2S)-2-[2-(3,4-dimethoxyphenyl)-ethoxy]cyclohexyl}-piperazine hydrochloride] came in with an ED50AA of 0.6 µmol/kg/min.
In the case of `COc1ccc(CCO[C@H]2CCCCC2N2CC[C@@H](OCc3ccccc3)C2)cc1OC.Cl` (stereo partly drawn) [Compound 12, (3R)-3-benzyloxy-1-{(1R,2R)/(1S,2S)-2-[2-(3,4-dimethoxyphenyl)-ethoxy]cyclohexyl}-pyrrolidine hydrochloride] it was 1 µmol/kg/min; in that of `COc1ccc(CCCO[C@H]2CCCCC2N2CCOCC2)cc1OC.Cl` (stereo partly drawn) [Compound 19, 4-{(1R,2R)/(1S,2S)-2-[3-(3,4-dimethoxyphenyl)-propoxy]cyclohexyl}morpholine hydrochloride], 1.5 µmol/kg/min; in that of `COc1ccc(CCO[C@@H]2CCCC[C@H]2N2CC[C@H](O)C2)cc1OC.Cl` [Compound 6, (1R,2R)-2-[(3S)-Hydroxypyrrolidinyl]-1-(3,4-dimethoxyphenethoxy) cyclohexane monohydrochloride], 1.6 µmol/kg/min.
The same measure for `Brc1ccccc1CCO[C@H]1CCCCC1N1CCOCC1` (stereo partly drawn) [Compound 39, (1R,2R)/(1S,2S)-[2-(4-morpholinyl)-1-(2-bromophenethoxy)]-cyclohexane]: 1 µmol/kg/min.
As for `Cl.OC1CCN(C2CCCC[C@@H]2OCCc2ccccc2Br)C1` (stereo partly drawn) [Compound 24, (3R)/(3S)-1-{(1R,2R)/(1S,2S)-2-[2-(2-bromophenyl)-ethoxy]cyclohexyl}-pyrrolidin-3-ol hydrochloride], the ED50AA was 0.4 µmol/kg/min.
The same measure for `COc1ccc(CCO[C@H]2CCCCC2N2CC[C@H](O)C2)cc1OC.Cl` (stereo partly drawn) [Compound 5, (1R,2R)/(1S,2S)-2-[(3S)-Hydroxypyrrolidinyl]-1-(3,4-dimethoxyphenethoxy)-cyclohexane monohydrochloride]: 0.7 µmol/kg/min.
In the case of `c1ccc2c(CCO[C@H]3CCCCC3N3CCOCC3)cccc2c1` (stereo partly drawn) [Compound 31, (1R,2R)/(1S,2S)-[2-(4-morpholinyl)-1-(1-naphthenethoxy)]-cyclohexane] it was 1 µmol/kg/min; in that of `Brc1ccc(OCCO[C@H]2CCCCC2N2CCOCC2)cc1` (stereo partly drawn) [Compound 34, (1R,2R)/(1S,2S)-[2-(4-morpholinyl)-1-[2-(4-bromophenoxy)-ethoxy]]cyclohexane], 3 µmol/kg/min.
`COc1ccc(CCO[C@@H]2CCCC[C@H]2N2CC[C@@H](OC(C)=O)C2)cc1OC.Cl` [Compound 17, (3R)-1-{(1R,2R)-2-[2-(3,4-dimethoxyphenyl)-ethoxy]cyclohexyl}-pyrrolidin-3-yl acetate hydrochloride] showed an ED50AA of 2.1 µmol/kg/min.
In the case of `c1cc(CCO[C@H]2CCCCC2N2CCOCC2)c2ccsc2c1` (stereo partly shown) [Compound 37] it was 1 µmol/kg/min.
With `c1ccc2cc(CCO[C@H]3CCCCC3N3CCOCC3)ccc2c1` (stereo partly drawn) [Compound 30, (1R,2R)/(1S,2S)-[2-(4-morpholinyl)-1-(2-naphthenethoxy)]-cyclohexane], the ED50AA came to 0.8 µmol/kg/min.
In the case of `Brc1cccc(CCO[C@H]2CCCCC2N2CCOCC2)c1` (stereo partly drawn) [Compound 38, (1R,2R)/(1S,2S)-[2-(4-morpholinyl)-1-(3-bromophenethoxy)]-cyclohexane] it was 2 µmol/kg/min.
The same measure for `Cl.O[C@@H]1CCN(C2CCCC[C@@H]2OCCc2ccccc2C(F)(F)F)C1` (stereo partly drawn) [Compound 27, (3R)-1-{(1R,2R)/(1S,2S)-2-[2-(2-Trifluoromethyl-phenyl)ethoxy]-cyclohexyl}-pyrrolidin-3-ol hydrochloride]: 0.7 µmol/kg/min.
Consider `COc1ccc(CCO[C@H]2CCCC[C@@H]2N2CC[C@@H](O)C2)cc1OC.Cl` [Compound 2, (1S,2S)-2-[(3R)-Hydroxypyrrolidinyl]-1-(3,4-dimethoxyphenethoxy)cyclohexane monohydrochloride], for which the ED50AA worked out at 1.2 µmol/kg/min.
The same measure for `COc1ccc(CCO[C@H]2CCCCC2N2CCC[C@@H]2CO)cc1OC.Cl` (stereo partly drawn) [Compound 15, {(2R)-1-{(1R,2R)/(1S,2S)-2-[2-(3,4-dimethoxyphenyl)-ethoxy]cyclohexyl}-pyrrolidin-2-yl}methanol hydrochloride]: 0.8 µmol/kg/min; for `Cl.OC1CCN([C@@H]2CCCC[C@@H]2OCCc2cccc3ccccc23)C1` (stereo partly drawn) [Compound 25, (3R)/(3S)-1-{(1R,2S)/(1S,2R)-2-[2-(1-naphthyl)ethoxy]-cyclohexyl}-pyrrolidin-3-ol hydrochloride]: 0.4 µmol/kg/min; for `COc1cc(CCCO[C@H]2CCCCC2N2CC[C@@H](O)C2)cc(Cl)c1OC.Cl` (stereo partly drawn) [Compound 21, (3R)-1-{(1R,2R)/(1S,2S)-2-[3-(3-chloro-4,5-dimethoxyphenyl)-propoxy]cyclohexyl}pyrrolidin-3-ol hydrochloride]: 0.6 µmol/kg/min.
For `COc1ccc(CCO[C@H]2CCCCC2N2CC[C@H](OC(C)=O)C2)cc1OC.Cl` (stereo partly drawn) [Compound 13, (3S)-1-{(1R,2R)/(1S,2S)-2-[2-(3,4-dimethoxyphenyl)-ethoxy]cyclohexyl}-pyrrolidin-3-yl acetate hydrochloride], the ED50AA is 1.3 µmol/kg/min.
The same measure for `COc1ccc(CCO[C@H]2CCCCC2N2CCC(O)C2)cc1OC` (stereo partly drawn) [Compound 3, (1R,2R)/(1S,2S)-2-[(3R)/(3S)-Hydroxypyrrolidinyl]-1-(3,4-dimethoxyphenethoxy)-cyclohexane monohydrochloride]: 1.3 µmol/kg/min.
In the case of `COc1ccc(CCO[C@H]2CCCCC2N2CC[C@H](OCc3ccccc3)C2)cc1OC.Cl` (stereo partly drawn) [Compound 11, (3S)-3-benzyloxy-1-{(1R,2R)/(1S,2S)-2-[2-(3,4-dimethoxyphenyl)-ethoxy]cyclohexyl}-pyrrolidine hydrochloride] it was 0.5 µmol/kg/min; in that of `c1ccc2c(CCO[C@H]3CCCCC3N3CCOCC3)csc2c1` (stereo partly shown) [Compound 36], 1 µmol/kg/min; in that of `COc1ccc(CCO[C@H]2CCCCC2N2CCOCC2)cc1OC` (stereo partly drawn) [Compound 35, (1R,2R)/(1S,2S)-[2-(4-morpholinyl)-1-(3,4-dimethoxy-phenethoxy)]-cyclohexane], 4 µmol/kg/min.

Source of the values: patent publication US20070099983A1, “Aminocyclohexyl ether compounds and uses thereof” (Cardiome Pharma Corp., priority 2003, published 2007).
